Assay results published in PubChem BioAssay AID445 (National Center for Advancing Translational Sciences (NCATS), 2006).
Out of some 110,000 compounds screened, about 40 (0.04%) were called active. The inconclusive results got no clear call from the source; some entries with a clear call stand among them for comparison. The call rests on the fitted dose curve; in most records, active means well fitted curve in the direction sought with a large enough effect in the signal ratio (not every such curve was filed as active); inconclusive means small, poorly fitted or top-dose-only effect, or a change in a side signal; inactive means flat fitted curve, though single readings scatter; the % refers to the signal ratio. A potency beside an inconclusive call is a rough fit, not a confirmed value.

Test: IkB Signaling;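 on IkBa stabilization activation: 0% = basal untreated cells and 100% = reference inhibitor full response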
Conditions: ABC-DLBCL IkBa-CBG/CBR dual luciferase ratio (green luciferase fused to IkBa over red control in OCI-Ly3 lymphoma cells), 4 h; IkBa stabilization activation: at 57.1 µM (top of the series), scaled: untreated 0%, proteasome inhibitor 100% unless noted
Summary of the method: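 Curves were fitted separately to fusion (green), unfused (red) and ratio luminescence, then classed by r2, magnitude and activity. Cells: OCI-Ly3, 4 h compound plus doxycycline at 37C; 10 uM MG-132 defined full response.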
Potency means the concentration at half of the fitted maximal effect.

| SMILES | IkBa stabilization activation | Potency |
| --- | --- | --- |
| Cc1ccc(CSCC(=O)N2CCN(c3ccccc3F)CC2)cc1 | inconclusive: -1.05% [signal inhibitor] | – |
| CCN(CC)S(=O)(=O)c1ccc(NC(=O)c2ccccn2)cc1 | inactive: 1.15% | – |
| CC1=C(C(=O)Nc2ccccc2)C(c2cccnc2)n2nc(SCc3ccccc3Cl)nc2N1 (stereo not drawn) | inactive: -0.433% | – |
| Cc1cc(C2CCCCC2)n(O)c(=O)c1 | – | inconclusive: 10 µM [rising, partial curve] |
| Cc1cccc(-c2nnc(SCC#N)n2-c2ccccc2)c1 | inactive: 0.449% | – |
| O=C(Nc1ccc(Cl)cc1)N1CCC(c2nc(-c3ccc(F)cc3)no2)CC1 | inconclusive: 1.39% [signal inhibitor] | – |
| COc1ccc(-c2cn3c(C)c(C(=O)Nc4cccc(C)n4)sc3n2)cc1 | – | inconclusive: 0.631 µM [signal inhibitor, full curve] |
| CS(=O)(=O)N1CCC2(CC1)CN(C(=O)Nc1cccc(F)c1)C2 | inactive: 4.52% [at 11.4 µM, scaled: untreated 0%, proteasome inhibitor 100%] | – |
| Cc1ccccc1NC(=O)Cn1c(=O)oc2cc(Br)ccc21 | inconclusive: 3.25% [signal inhibitor] | – |
| COc1ccccc1-c1nc2c(c(SCC(=O)Nc3ccc(C)c(C)c3)n1)Cc1c(CO)cnc(C)c1O2 | inactive: -2.26% | – |
| COc1ccc(N(CC(=O)Nc2cccc(Cl)c2C)S(=O)(=O)c2c(C)nn(C)c2C)cc1 | inconclusive: 1.86% [signal inhibitor] | – |
| COc1ccc(C2=C(C)C(=NCCCN3CCN(c4cc(C)ccc4C)CC3)NS2(=O)=O)cc1 | inconclusive: 2.1% [signal inhibitor] | – |
| O=C(c1cc2c(s1)-c1ccccc1OC2)N1CCN(c2ccccc2F)CC1 | inconclusive: 6.39% [signal inhibitor] | – |
| CCCCN(CC)CCCNC(=O)c1nn(C)c2c1CS(=O)(=O)c1ccccc1-2 | inconclusive: 1.73% [signal inhibitor] | – |
| CCOC(=O)C1CCCN(c2cc(C)nc3c(-c4ccccc4OC)c(C)nn23)C1 (stereo not drawn) | inconclusive: 0.124% [signal inhibitor] | – |
| Cc1cccc2cc(CN(Cc3cccs3)C(c3nnnn3C3CCCC3)C(C)C)c(=O)[nH]c12 (stereo not drawn) | – | inconclusive: 20 µM [signal inhibitor, partial curve] |
| O=C(Nc1cccc(OCc2cc(=O)n3c4c(sc3n2)CCCC4)c1)c1ccc(F)cc1 | inconclusive: 1.06% [signal inhibitor] | – |
| Cc1ccc2nc(-c3cc(NC(=O)/C=C/c4ccccc4)ccc3Cl)oc2c1 | inconclusive: 8.25% [signal inhibitor] | – |
| CCOc1ccc(-c2nnc(SCC(=O)NCCc3ccc(OC)c(OC)c3)nc2-c2ccc(OCC)cc2)cc1 | inconclusive: 2.39% [signal inhibitor] | – |
| COc1cc(Cl)c(C)cc1NC(=O)c1cn(C2CCCC2)c(=O)c2c1c1ccccc1n2C | inconclusive: 5.73% [signal inhibitor] | – |
| COc1ccc(C(=O)Nc2ccc3nc(N4CCC(C)CC4)cc(C)c3c2)cc1 | inconclusive: 2.44% [signal inhibitor] | – |
| COc1ccc(Cl)cc1-n1c(/C=C/c2cccc3ccccc23)nc2ccccc2c1=O | inconclusive: 0.0837% [signal inhibitor] | – |

| SMILES | IkBa stabilization activation | Potency |
| --- | --- | --- |
| CCC/C(O)=C1\C(=O)CC(C)(C)CC1=Nc1ccccc1OC | inconclusive: 6.54% [signal inhibitor] | – |
| COc1ccc2[nH]cc(CCNc3ccnc(-c4cccc(NS(C)(=O)=O)c4)n3)c2c1 | inactive: -0.163% [at 11.4 µM, scaled: untreated 0%, proteasome inhibitor 100%] | – |
| CCOC(=O)N1CCN(S(=O)(=O)c2ccc(C)cc2)C1c1ccccc1 (stereo not drawn) | inactive: 1.2% | – |
| O=C(CC1c2ccccc2Oc2ccccc21)N1CCN(c2ccccn2)CC1 | – | inconclusive: 20 µM [signal inhibitor, partial curve] |
| CCOc1cccc(C(c2c(C)n(C)n(-c3ccccc3)c2=O)c2c(C)n(C)n(-c3ccccc3)c2=O)c1OC | inconclusive: 0.943% [signal inhibitor] | – |
| Cc1ccnc(NC(=O)C2CCN(S(=O)(=O)c3cccc4nsnc34)CC2)c1 | inconclusive: -0.405% [signal inhibitor] | – |
| CCc1c(C)c2ccc(OCC(=O)N(C)C)c(C)c2oc1=O | inactive: -7.9% | – |
| COc1ccc(Cc2nn3c(-c4ccccc4Br)nnc3s2)cc1 | inactive: -2.68% | – |
| CCOc1ccccc1NC(=O)Cn1c(=O)n(-c2ccc(F)cc2)c(=O)c2sc3ccccc3c21 | inconclusive: 5.8% [signal inhibitor] | – |
| COc1ccc(CCNC(=O)CCCn2c(=O)c3ccccc3n(CC(=O)Nc3cc(Cl)ccc3C)c2=O)cc1OC | inactive: -1.63% | – |
| COc1cccc(-n2c(=O)c3sc4ccccc4c3n(CC(=O)NC3CCCCC3)c2=O)c1 | inactive: 13.1% | – |
| O=C(C1CCCCN1S(=O)(=O)c1ccc(F)cc1)N1CCN(c2ccccc2F)CC1 (stereo not drawn) | inconclusive: 16.7% [signal inhibitor] | – |
| Cn1c(=O)oc2cc(S(=O)(=O)NCCC(=O)Nc3ccc(F)cc3F)ccc21 | inconclusive: 1.63% [signal inhibitor] | – |
| COc1ccccc1-n1cnnc1SC1CCOC1=O (stereo not drawn) | – | inconclusive: 0.0794 µM [signal inhibitor, full curve] |
| N#Cc1cnc(Nc2nc3ccccc3o2)nc1-c1ccccc1 | inactive: -5.64% | – |
| CCCCn1c(=N)n(CC(O)COc2cccc(C)c2)c2ccccc21 (stereo not drawn) | inconclusive: -2.89% [signal inhibitor] | – |
| CC1(C)Cc2c(sc3c2c(=N)n(Cc2ccco2)c(=O)n3CC(=O)Nc2ccccc2)CO1 | inconclusive: 15.3% [signal inhibitor] | – |
| CCN(CCCNC(=O)C1CCC(=O)N1Cc1ccc(C)cc1)c1cccc(C)c1 (stereo not drawn) | inconclusive: 5.58% [signal inhibitor] | – |
| CC1=C(c2ccc(C)c(C)c2)S(=O)(=O)NC1=NCc1ccccc1Cl | inactive: 1.34% | – |
| Cc1cc(C)c(NC(=O)c2sc3nc(C)cc(C)c3c2NC(=O)c2ccccc2)c(C)c1 | inactive: 1.88% | – |
| Cc1ccc(Nc2nc(CSc3nnnn3C)cs2)cc1 | inactive: -0.0809% | – |
